Measured values: the supplement of paper PMC5499739
Over roughly 16,000 sequences, “Z-score” has its median near -0.37; the highest 2% begin near 3.1. The list shows a part of the results.

These sequences were tested on RBM10 RRM1-ZnF-RRM2 (GST-tagged construct) (assay: RNAcompete 7-mer binding Z-score; higher = stronger binding preference).
Procedure: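 RNAcompete: 20 pmol GST-tagged RBM10 RNA-binding constructs were incubated with a designed RNA pool of about 241,000 sequences up to 41 nt (1.5 nmol) on glutathione beads for 30 min at 4 °C and washed. Bound RNAs were identified by microarray hybridisation. Each RNA 7-mer is scored by a one-sided Z-score of its enrichment, computed over probes that contain the 7-mer within longer pool sequences.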

Sequence | RNAcompete 7-mer binding Z-score
CCUAAGA | -0.541
UCGUCAG | -0.216
UAGUUGG | 1.23
CACUACC | -0.795
UAGGUGA | 2.39
CCCAGAG | -0.0998
CCAUUGA | -0.694
AACUAAG | -0.00512
UGUGUAG | 0.738
GGUGGAA | 3.71
AUCCCAC | -0.639
CCGGCGG | 0.388
CUAUCCC | -0.905
GUGUUGU | 0.268
AUCAGCA | -0.395
GUAACGU | 0.323
UCCACAG | -0.453
CCGGAGG | 0.876
UCGCCGC | -0.752
AGCAAGA | 0.17
GAGAUCC | -0.391
GGGGGUG | 3.43
AGAUUAA | -0.0925
AUCCAGC | -0.69
AGGUUAA | 1.24

Sequence | RNAcompete 7-mer binding Z-score
CGGUACC | -0.187
CAGUUGC | -0.49
CAGCCUG | -0.577
UCUAAAC | -0.708
GUCGCUG | 0.0495
GGAAGGA | 4.61
AGAGAGG | 1.58
AUCGUCC | -0.766
UACUAUG | -0.417
ACAACUC | -0.744
AAAUGCU | -0.577
GCAAUUA | -0.344
GUGCACA | 0.0167
UCUGGUU | -0.388
GUCCGAA | -0.606
AUUGAGG | 1.64
GGUCGGC | 0.854
UACAUAG | -0.0124
CAAAACA | -0.351
ACACACC | -0.475
AGACCCC | -1.09
GUAAAAU | 0.0349
UACGAUG | 0.25
CUCUUUA | -0.887
UGUGCGA | 0.21

Sequence | RNAcompete 7-mer binding Z-score
ACGCAGG | 0.625
GCAUGAU | -0.191
CUCGCGU | -0.635
GGACUUU | -0.304
UCCCCGA | -0.562
AUGAGGG | 4.32
AGAGCAC | -0.763
UUCGGUA | -0.144
AGCCAGC | -0.358
AUUAGGC | 0.439
UAUCUGG | -0.388
GGAGUCC | 0.749
CGGGUGU | 1.83
UAAACUU | -0.628
GCAUACU | -0.599
GACCGAG | -0.158
CCCCUCU | -0.602
AAUCCUA | -0.843
CCUAUGG | -0.442
CGUGAGU | 0.188
GCAUUGG | 0.782
ACGACCG | -0.504
UCAUCAA | -0.635
UAUAACU | -0.672
AUGCAUU | -0.602

Sequence | RNAcompete 7-mer binding Z-score
CGUUCGA | -0.588
CGCUAAC | -0.726
GUAACCC | -0.176
GUGGUCC | 0.0677
CUGCGCU | -0.806
UCCAGUA | -0.391
CAGACAC | -0.289
AAUCCGA | -0.417
GGCUCUG | -0.475
GCGCAGG | 1.59
GAGUCUU | -0.286
CUGGCUG | -0.0743
AUAUCGU | -0.581
UCAAGAG | -0.0306
AAUAUUA | -0.293
ACUCGGA | -0.224
UCACGCG | -0.296
CUGUAGU | -0.61
GGGUGAC | 2.92
CAGUCUG | -0.686
AACUGAG | 0.177
CCAUGCA | -0.69
CCAUCUA | -0.854
UGAGAAU | 0.133
GACGCCA | -0.748

Sequence | RNAcompete 7-mer binding Z-score
CGCCACG | -0.318
GUUAGCU | -0.347
UGAUACG | 0.108
UAUACUC | -0.795
CCCUUAA | -0.832
CUGUCCG | -0.744
AGAAGUU | -0.0743
CGAUUCG | -0.49
CACCAAU | -0.57
GUGACCU | -0.573
GGGGAUG | 3.68
GUCGAGG | 1.9
AUUGCUG | -0.267
CAAGCGU | -0.329
GCCCUUU | -0.992
UAGUGGC | 0.756
UUUGCGA | -0.69
ACACCCC | -0.497
GCAGCCG | -0.191
UACGUCU | -0.836
CUGUCGG | -0.446
AGGGUCG | 1.61
UUAACUC | -0.865
CCUUGCA | -0.872
AUUCUAG | -0.544

Sequence | RNAcompete 7-mer binding Z-score
AUGCGUG | 0.563
ACUGCUU | -1.02
CUAAUCU | -0.865
GUGAAAG | 1.55
AUCAUAC | -0.464
AGCCCGA | -0.694
UUUUAAC | -0.741
GUCGCCA | -0.555
AUUGACU | -0.581
UCGAAAG | -0.00148
AUAGGUU | 1.49
UACACAA | -0.289
ACCUUGG | -0.431
AGGCAGA | 1.07
GCUGUUU | -0.777
UGGUGGG | 4.04
AGUAAGA | 0.541
CAAUGGA | 1.4
GGUGGGA | 3.75
AGUUUUU | -0.522
CAAGUUG | -0.0415
GGACGGC | 1.05
AAGAGUA | 1.2
GAGCACG | 0.377
GGUACAG | 2.31

Sequence | RNAcompete 7-mer binding Z-score
CCUGGGU | 0.326
UAUUUUU | -0.795
GCCGAAC | -0.486
GAUAGGG | 4.38
UAAGGGC | 1.51
CCUAAGG | -0.395
UACUUGU | -0.752
UUCGCGC | -0.85
CUGCAUC | -0.814
UAGGAGG | 2.94
GCGUUUG | -0.22
ACAUAAG | -0.0634
GACGGCA | 0.439
CAAGUUC | -0.566
GGACAGC | 1.07
GCCGGAU | -0.0161
UUUCGAA | -0.584
ACCACUG | -0.468
UUCCCUU | -0.825
GCUGGUU | 0.232
ACCGUGU | -0.34
UCUCCUC | -0.664
UGCUGUA | -0.504
CACGCAG | -0.165
CCGGACC | -0.712

Sequence | RNAcompete 7-mer binding Z-score
GCUCUGU | -0.723
GAUACAG | 0.949
CUUCUCU | -0.854
CAAUCCA | -0.511
GAUUCGG | 0.865
ACUCCAC | -0.781
AUCUUCU | -0.803
ACGACCC | -0.61
CUUUGUG | -0.595
GAAUAGC | 0.0532
ACAAUAU | -0.286
CGGUCAG | 0.166
CACUGUG | -0.471
GGAGAUG | 2.79
AUCCUCC | -0.846
UCCCACG | -0.675
CACGAGA | -0.191
CCAACUG | -0.653
ACUUGUG | -0.621
CCAUUUC | -1.01
UUAAUAA | -0.559
AUCAAUA | -0.078
GUUACAC | -0.154
UAAAUAA | -0.264
GCUGCCU | -0.613

Sequence | RNAcompete 7-mer binding Z-score
ACAGUUU | -0.617
AGUGUGA | 0.574
UCAACCG | -0.646
AAGGCAA | 1.95
CGCAUGU | -0.479
UAUCAGC | -0.77
CCUGAUG | -0.668
CCGAAGC | -0.657
UGUGAAG | 0.829
CCAGUAU | -0.471
CAUUCGC | -0.774
GAGACCU | -0.788
AUUAAUG | 0.075
UCCAGAU | -0.555
ACCCUCC | -0.916
ACCAGGU | 0.399
AGUUGCC | -0.65
ACGCUGG | 0.286
GGCUAGG | 1.36
UCUAGAC | -0.821
ACGGUCC | -0.482
ACGGACU | -0.122
AAUACGC | -0.271
UGUUGUG | 0.119
GGGCGAG | 3.88

Sequence | RNAcompete 7-mer binding Z-score
UGGGUAU | 2.2
UCUGCUC | -0.872
AUGGCCA | 0.075
GUGCAAC | 0.115
CAUUCUG | -0.817
CAGCAUA | -0.479
GGUUUAG | 1.11
CAUAGCA | -0.391
CUUGAGG | 0.221
CGUACUA | -0.337
CGCCCCU | -0.675
GAUUUUG | -0.213
UUUUUUU | -0.785
CCCUGUA | -0.734
CGAACCU | -0.715
UGAGUCG | 0.319
AUGCAUC | -0.362
AAAUCUG | -0.49
CGUAACG | 0.0313
GGGGGCU | 1.78
GUUUAGU | -0.125
UGAAAGG | 2.76
AGCCAGU | -0.515
GUUUAAC | -0.49
GGAUAGC | 2.07

Sequence | RNAcompete 7-mer binding Z-score
GCAGCUC | -0.566
CUGAAUC | -0.617
UAAGUGG | 1.63
UGCAGUC | -0.526
CGAACAG | 0.0131
AUAAUAC | -0.555
UCCCUUG | -0.748
CUGAUAG | -0.315
GAUUAUU | -0.406
UUAGAAU | -0.0998
ACAAAAG | 0.268
AAGGGUA | 4.27
CGGGGAA | 2.76
CUGGAUU | -0.133
UCUGUAU | -0.712
ACUUGGG | 1.24
AAACAGA | 0.0786
CCCGGUC | -0.657
GUUGUCA | -0.468
GGUCUCA | -0.169
UAUGAUG | 0.115
CGCUAUU | -0.795
UUCGGCG | 0.173
CAAGUCU | -0.617
UUCCAUU | -0.77

Sequence | RNAcompete 7-mer binding Z-score
GUCCAGG | 0.308
GUAAUGG | 2.45
GAUUCCC | -0.643
ACGUAGG | 1.8
GAUAGCC | -0.395
UAUCCCA | -0.646
UAGGUAC | 0.749
GAUGGGU | 3.01
GCGUAAU | 0.275
AAUCUUA | -0.715
UGAUGGG | 2.92
AUCGUAU | -0.304
UAGACUU | -0.704
CAUGUGC | -0.253
GUAAUAU | -0.144
AAGGAGC | 2.57
GGGCAUG | 1.88
AUCUGUU | -0.85
GGCCUCC | -0.683
UCAUUCC | -0.806
GCUCCCG | -0.464
UUACAUA | -0.351
CCCGGCU | -0.511
GCAUAGC | -0.307
UGUGCAU | -0.282

Sequence | RNAcompete 7-mer binding Z-score
UGCUUAU | -0.81
UGGUCGG | 1.86
UCCAUUC | -0.748
UCAUAGG | 0.308
UCACGCC | -0.675
GCGUAUA | -0.173
UUCUCGA | -0.759
GCGCCGA | -0.351
CGACAGG | 1.38
ACUUUCU | -0.959
GAUCCCA | -0.646
CGGGGAU | 2.11
UUCAAGU | -0.424
CUGCGAA | -0.544
AAGAAUC | -0.471
GGUGUUU | 0.891
UCAAUAA | -0.497
GAAUAAG | 0.76
UCAAUGU | -0.162
GGCUAAC | 0.221
CUCGCAU | -0.69
CCGUUCU | -0.85
GAAGCCU | -0.897
AGACGCA | -0.657
GACGCGC | -0.42

Sequence | RNAcompete 7-mer binding Z-score
CAACGUU | -0.38
CAGCAAU | -0.413
CAUGGUU | 0.548
CUGUGUG | -0.129
UUUGGUG | 0.629
GCGAGGA | 2.06
CGCGUUA | -0.464
CGACAGC | -0.249
CAGUCGG | 0.352
CUACCCU | -0.803
AAAAUAG | -0.00877
UCGCCGU | -0.562
AGAAUUC | -0.457
CUAGUUG | -0.449
UGAAUAU | -0.311
GAUUUUU | -0.548
GGUGAAG | 2.71
CUAGCGU | -0.522
CCUCUCC | -0.65
CCACAGC | -0.657
UAGUUUG | -0.0962
CUGUGGG | 1.63
GCUGCAG | 0.184
CCAAGCC | -0.657
AGCUACU | -0.551

Sequence | RNAcompete 7-mer binding Z-score
UAAUCGC | -0.766
AGGAUCG | 0.501
GCCAGUC | -0.482
AUUAGCU | -0.464
ACUGCAG | 0.126
CCUAGCA | -0.85
AAGUUGG | 1.43
UAAUGCG | -0.26
GUCCCUU | -0.897
GAACCCC | -0.519
GGGACAC | 1.27
AGUACAA | -0.0707
UACAUAA | -0.493
GGGGGGG | 2.58
GACUGCG | -0.315
UUUGAAA | -0.551
CCUACGU | -0.814
